Experimental data published in the CheMixHub viscosity set.
± gives the uncertainty stated by the source. The source gives many values for each of these; only a part stands here.

Conditions: 298.15 K; 101 kPa

## CCCC[n+]1ccn(C)c1.O=C([O-])C(F)(F)F
  viscosity: 71.1 ± 1.9 mPa·s
